Where a name gives a salt, the structure may show the parent alone. ± gives the standard deviation of the averaged measurements. Over roughly 2,000 compounds, “relative cell viability vs DMSO, compound alone” has its median near 1.1; the lowest 2% begin near 0.29. The list shows a part of the results.

The subject of the experiment is TE10. Nature of the experiment: relative cell viability vs DMSO, compound alone (fraction); TE10 is an esophageal squamous carcinoma line; higher = less cytotoxic. As to conditions: 2 µM; 48 h. On the procedure: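 TE10 ESCC cells (1,000/well, 384-well plates) were treated with Selleck bioactive library compounds at 2 uM alone for 48 h. Viability was read by CellTiter-Glo and expressed relative to DMSO wells. Two technical replicates (A, B).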
`N#Cc1c(NC(=O)c2cccc3ccccc23)sc2c1CCCC2` [JNK Inhibitor IX] gave a relative cell viability of 1 ± 0.006.

Take `C=CC(=O)Nc1cccc(Nc2nc(Nc3ccc(OCCOC)cc3)ncc2F)c1`: the relative cell viability was determined as 0.919 ± 0.031.

`CCc1c(Cl)c(O)c(Cl)c(O)c1C(=O)O[C@H]1[C@H](O)[C@H](OC)[C@H](OC/C2=C\C=C\C[C@H](O)/C(C)=C/[C@H](CC)[C@@H](O[C@@H]3OC(C)(C)[C@@H](OC(=O)C(C)C)[C@H](O)[C@@H]3O)/C(C)=C/C(C)=C/C[C@@H]([C@@H](C)O)OC2=O)O[C@@H]1C` [Fidaxomicin]: the relative cell viability came to 1.05 ± 0.029.

`Nc1ccn([C@@H]2CS[C@H](CO)O2)c(=O)n1` [Lamivudine] displayed a relative cell viability of 0.944 ± 0.053.

`O=C1NCCCc2c1oc1ccc(O)cc21` showed a relative cell viability of 1.01 ± 0.085.

`COc1ccccc1OCC(O)COC(N)=O` (centres undefined) [Methocarbamol] returned a relative cell viability of 1.11 ± 0.02.

Turning to `COC(=O)Nc1nc2cc([S+]([O-])c3ccccc3)ccc2[nH]1` (centres undefined) [Oxfendazole], the relative cell viability was determined as 0.913 ± 0.023.

Consider `OC[C@@H](O)[C@@H](O)[C@@H](O)CO` [Ribitol], for which the relative cell viability was determined as 1.126 ± 0.0056.

The molecule `O=C(Nc1ccccc1)Nc1ccc(-c2ccc(C(=O)[C@@H]3CCC[C@H]3C(=O)O)cc2)cc1` gave a relative cell viability of 0.994 ± 0.026.

For `CN(C)C/C=C/C(=O)Nc1cc2c(Nc3ccc(F)c(Cl)c3)ncnc2cc1O[C@H]1CCOC1` [Afatinib (BIBW2992) Dimaleate], the relative cell viability was determined as 0.976 ± 0.014.

Regarding `CN(C)C/C=C/C(=O)Nc1cc2c(Nc3ccc(F)c(Cl)c3)ncnc2cc1O[C@H]1CCOC1` [Afatinib (BIBW2992)], the relative cell viability was found to be 0.915 ± 0.048.

Molecule `O=C1NC(=O)C(c2ccccc2)(c2ccccc2)N1` [Phenytoin] displayed a relative cell viability of 1 ± 0.037.

Take `CC(C)(O)c1ccccc1CC[C@@H](SCC1(CC(=O)O)CC1)c1cccc(/C=C/c2ccc3ccc(Cl)cc3n2)c1` [Montelukast Sodium]: the relative cell viability amounted to 1.06 ± 0.072.

`O=C1NC(=O)C(=Cc2ccc(-c3ccc(F)cc3)o2)S1` (stereo in doubt): the relative cell viability stood at 0.983 ± 0.019.

`C#CCC(Cc1cnc2nc(N)nc(N)c2n1)c1ccc(C(=O)N[C@@H](CCC(=O)O)C(=O)O)cc1` (some centres undefined) [Pralatrexate] displayed a relative cell viability of 0.1336 ± 0.00088.

`O=C(C[S+]([O-])Cc1ccco1)NC/C=C\COc1cc(CN2CCCCC2)ccn1` (centres undefined) [Lafutidine] returned a relative cell viability of 1.07 ± 0.045.

`CCN(CC)CCCC(C)Nc1nc(C)cc(Nc2ccc3nc(C)cc(N)c3c2)n1` (centres undefined) registered a relative cell viability of 1.11 ± 0.024.

On to `O=C(c1ccccc1)c1ccc2n1CCC2C(=O)O` (centres undefined) [Ketorolac], for which the relative cell viability is 1.078 ± 0.0035.

In turn, `COc1ccc(S(=O)(=O)N(CCO)c2ccccc2CN(C)C/C=C/c2ccc(Cl)cc2)cc1` [KN-93 Phosphate] came in with a relative cell viability of 0.984 ± 0.051.

Regarding `O=C(Nc1ccccc1Br)N[C@@H]1CCN(c2ccc(C(F)(F)F)cn2)C1`, the relative cell viability is 1.02 ± 0.034.

For the molecule `O=C(NOCC(O)CO)c1cc(Br)c(F)c(F)c1Nc1ccc(I)cc1F` (centres undefined), the relative cell viability came out at 0.843 ± 0.018.

In turn, `CN(C)CC(c1ccc(O)cc1)C1(O)CCCCC1` (centres undefined) [Desvenlafaxine] showed a relative cell viability of 1.115 ± 0.0085.

As for `CN(C)CC(c1ccc(O)cc1)C1(O)CCCCC1` (centres undefined) [Desvenlafaxine Succinate], the relative cell viability was found to be 1.05 ± 0.038.

Molecule `CN(C)Cc1ccc(S(=O)(=O)n2ccc(/C=C/C(=O)NO)c2)cc1` [Resminostat] registered a relative cell viability of 0.908 ± 0.028.

For `Nc1ncnc2n[nH]c(Nc3ccc(F)cc3)c12`, the relative cell viability worked out at 1.12 ± 0.026.

The molecule `CCn1cc(NC(=S)Nc2cc(Cl)ccc2OC)c(C(N)=O)n1` came in with a relative cell viability of 1.19 ± 0.041.

As to `CC[C@H](C)C[C@H](C)CCCCCCCCC(=O)N[C@H]1C[C@@H](O)[C@@H](NCCN)NC(=O)[C@@H]2[C@@H](O)CCN2C(=O)[C@H]([C@H](O)CCN)NC(=O)[C@H]([C@H](O)[C@@H](O)c2ccc(O)cc2)NC(=O)[C@@H]2C[C@@H](O)CN2C(=O)[C@H]([C@@H](C)O)NC1=O` [Caspofungin Acetate], the relative cell viability came out at 1.1 ± 0.037.

For `c1ccc(CN(CC2=NCCN2)c2ccccc2)cc1` [Antazoline HCl], the relative cell viability was found to be 1.05 ± 0.012.

In turn, `CN(C)CC/C=C1/c2ccccc2COc2ccc(CC(=O)O)cc21` [Olopatadine HCl] returned a relative cell viability of 1.11 ± 0.081.

In the case of `Cc1cc(OCc2nnc(SC3CCCC3)n2-c2cccnc2)ccc1-c1ccc(S(C)(=O)=O)cc1`, the relative cell viability stood at 1.11 ± 0.061.

Regarding `CNC(=O)c1ccc(C)c(-n2c(C)cc(OCc3ccc(F)cc3F)c(Br)c2=O)c1`, the relative cell viability is 1.09 ± 0.052.

In turn, `CCCCCCCCCCCC[N+](C)(C)CCOc1ccccc1` [Domiphen Bromide] displayed a relative cell viability of 1.1 ± 0.097.

As for `Cc1ccc(-n2nc(C(C)(C)C)cc2NC(=O)Nc2ccc(OCCN3CCOCC3)c3ccccc23)cc1` [BIRB 796 (Doramapimod)], the relative cell viability came out at 0.857 ± 0.021.

On to `CCCOc1ccc(C(=O)OCCN(CC)CC)cc1N` [Proparacaine HCl], for which the relative cell viability turned out to be 0.716 ± 0.03.

Consider `CCN(CC)CCCCNc1ncc2cc(-c3cc(OC)cc(OC)c3)c(NC(=O)NC(C)(C)C)nc2n1`, for which the relative cell viability was determined as 1.23 ± 0.029.

In turn, `C=CS(=O)(=O)NC1CCN(C(=O)CNc2cc(I)c(Cl)cc2OC)CC1` [K-Ras(G12C) inhibitor 9] displayed a relative cell viability of 1.13 ± 0.012.

For `CC[C@@H](CO)NCCN[C@@H](CC)CO` [Ethambutol HCl], the relative cell viability was found to be 1.14 ± 0.076.

`O=C(/C=C/c1ccc(O)c(O)c1)O[C@@H]1C[C@](O)(C(=O)O)C[C@@H](O)[C@H]1O` [Chlorogenic Acid] came in with a relative cell viability of 1.085 ± 0.0086.

In turn, `C[C@@H]1COC(Nc2ccc3ncnc(Nc4ccc(OCc5nccs5)c(Cl)c4)c3c2)=N1` [Varlitinib] registered a relative cell viability of 1.11 ± 0.045.

`CC(=O)OCC(=O)[C@H]1CC[C@H]2[C@@H]3CCC4=CC(=O)CC[C@]4(C)[C@H]3CC[C@]12C` [Deoxycorticosterone acetate]: the relative cell viability came out at 1.05 ± 0.028.

For `Oc1cccc(-c2nc(N3CCOCC3)c3oc4ncccc4c3n2)c1`, the relative cell viability was 0.472 ± 0.063.

Molecule `Cn1cc(-c2ccc3c(c2)CCN3C(=O)Cc2cccc(C(F)(F)F)c2)c2c(N)ncnc21` displayed a relative cell viability of 0.945 ± 0.17.

As to `C#C[C@]1(O)CC[C@H]2[C@@H]3CCC4=CC(=O)CC[C@@H]4[C@H]3CC[C@@]21CC` [Levonorgestrel], the relative cell viability stood at 1.1 ± 0.046.

`COc1ccc(-c2ccc3c(N4CCOCC4)nc(N4C[C@@H](C)O[C@@H](C)C4)nc3n2)cc1CO` displayed a relative cell viability of 0.43 ± 0.059.

On to `OC(CN1CCN(c2cccc(Cl)c2)CC1)C(c1ccccc1)c1ccccc1` (centres undefined), for which the relative cell viability was determined as 1.02 ± 0.061.

Molecule `COc1cc(OC)c(/C=C/S(=O)(=O)Cc2ccc(OC)c(NCC(=O)O)c2)c(OC)c1` had a relative cell viability of 0.661 ± 0.021.

Take `CC(C)c1cc2c(N3CCN(C4=NCC(C)(C)S4)CC3)ncnc2s1` [MI-3 (Menin-MLL Inhibitor)]: the relative cell viability worked out at 0.9593 ± 0.0084.

As to `CC/C(=C(/CC)c1ccc(O)cc1)c1ccc(O)cc1` [Diethylstilbestrol], the relative cell viability was found to be 0.991 ± 0.13.

Turning to `CC1=C(/C=C/C(C)=C/C=C/C(C)=C\C(=O)O)C(C)(C)CCC1` [Isotretinoin], the relative cell viability was found to be 0.836 ± 0.072.

Take `NC(N)=Nc1nc(CSCC/C(N)=N/S(N)(=O)=O)cs1` [Famotidine]: the relative cell viability stood at 1.09 ± 0.029.

Molecule `CCCCCCCc1ccc(CCc2cccc(O)c2C(=O)O)cc1` registered a relative cell viability of 1.04 ± 0.044.

Turning to `Cc1ccc([N+](=O)[O-])cc1S(=O)(=O)N(C)/N=C/c1cnc2ccc(Br)cn12`, the relative cell viability worked out at 0.287 ± 0.012.

Regarding `O=c1[nH]c(=O)n([C@H]2C[C@H](O)[C@@H](CO)O2)cc1Br` [Bromodeoxyuridine (BrdU)], the relative cell viability is 0.965 ± 0.12.

Take `COc1cc(NC(C)CCCN)c2ncccc2c1` (centres undefined) [Primaquine Diphosphate]: the relative cell viability was determined as 0.997 ± 0.0094.

For `Cc1ncc(Cl)cc1NCc1ccc(C(=O)N[C@@H](CC2CCCC2)C(=O)NC2CC2)s1`, the relative cell viability was 1.06 ± 0.039.

For `CCN(CC)CCOC(=O)C(c1ccccc1)c1ccccc1` [Adiphenine HCl], the relative cell viability stood at 0.872 ± 0.12.

`OC(CCCN1CCCCC1)(c1ccccc1)c1ccccc1` [Diphenidol HCl] returned a relative cell viability of 1.09 ± 0.15.

`CCCCCCCCCCCCc1ccc(S(=O)(=O)Nc2nncs2)cc1`: the relative cell viability was 1.12 ± 0.011.

Regarding `CCOC(=O)c1ccc(N)cc1` [Benzocaine], the relative cell viability was found to be 1.08 ± 0.016.

The molecule `Nc1cc(F)ccc1NC(=O)/C=C/c1cnn(C/C=C/c2ccccc2)c1` yielded a relative cell viability of 1.14 ± 0.012.

For the molecule `CN(Cc1cnc2nc(N)nc(N)c2n1)c1ccc(C(=O)N[C@@H](CCC(=O)O)C(=O)O)cc1` [Methotrexate], the relative cell viability came to 0.143 ± 0.0081.

On to `CCOc1ccc2nc3cc(N)ccc3c(N)c2c1` [Ethacridine lactate monohydrate], for which the relative cell viability turned out to be 1.033 ± 0.0023.

In turn, `COc1cc(C(C)=O)ccc1O` [Apocynin] registered a relative cell viability of 1.07 ± 0.059.

As to `O=c1ccc2ccccc2o1` [Coumarin], the relative cell viability was determined as 1.0837 ± 0.0003.

Regarding `Cc1nc(-c2cccnc2)sc1C(=O)Nc1ccccc1-c1cn2c(CN3CCOCC3)csc2n1`, the relative cell viability is 1.09 ± 0.057.

In turn, `CN(C)CCCN1c2ccccc2Sc2ccc(Cl)cc21` [Chlorpromazine HCl] came in with a relative cell viability of 1.01 ± 0.029.

`Nc1ccc(C(=O)Nc2cccc(-c3nc(N4CCOCC4)c4oc5ncccc5c4n3)c2)cn1`: the relative cell viability worked out at 0.713 ± 0.072.

Molecule `O=C1NC(=O)/C(=C/c2ccc3c(c2)OC(F)(F)O3)S1` had a relative cell viability of 1.05 ± 0.019.

`CCOc1ccccc1OC(c1ccccc1)C1CNCCO1` (centres undefined) [Reboxetine mesylate] registered a relative cell viability of 0.864 ± 0.057.

The molecule `O=c1[nH]cnc2c1ncn2[C@@H]1O[C@H](CO)[C@@H](O)[C@H]1O` [Inosine] showed a relative cell viability of 0.945 ± 0.065.

In the case of `COc1cc([C@@H]2c3cc4c(cc3[C@@H](O[C@@H]3O[C@@H]5CO[C@@H](c6cccs6)O[C@H]5[C@H](O)[C@H]3O)[C@H]3COC(=O)[C@H]23)OCO4)cc(OC)c1O` [Teniposide], the relative cell viability is 0.471 ± 0.0048.

The molecule `c1cncc(CN2CCC(n3ncc4c(N5CCOCC5)nc(-c5ccc6[nH]ccc6c5)nc43)CC2)c1` came in with a relative cell viability of 0.766 ± 0.063.

In turn, `COC1CCN(C(=O)c2cc(Cc3n[nH]c(=O)c4ccccc34)ccc2F)CC1` gave a relative cell viability of 0.964 ± 0.077.

Regarding `O=C1C(=O)c2ccccc2C(O)=C1C1CCC(c2ccc(Cl)cc2)CC1` (centres undefined) [Atovaquone], the relative cell viability is 1.13 ± 0.076.

In turn, `Cn1cc(-c2ccncc2)c(-c2ccc(OCc3ccc4ccccc4n3)cc2)n1` came in with a relative cell viability of 0.759 ± 0.038.

The molecule `O=C(O)[C@H]1O[C@@H](Oc2cc3oc(-c4ccccc4)cc(=O)c3c(O)c2O)[C@H](O)[C@@H](O)[C@@H]1O` [Baicalin] registered a relative cell viability of 0.993 ± 0.032.

For the molecule `Cc1cc(C)c(S(=O)(=O)n2cc(C)cc2C)c(C)c1`, the relative cell viability was determined as 1.189 ± 0.0094.

In turn, `Cc1[nH]c2ccccc2c1CCNCc1ccc(/C=C/C(=O)NO)cc1` [Panobinostat (LBH589)] gave a relative cell viability of 0.0672 ± 0.00084.

Consider `Cc1ccc2c(=O)c3cccc(CC(=O)O)c3oc2c1C` [DMXAA (Vadimezan)], for which the relative cell viability is 1.02 ± 0.11.
